The list shows a part of the results. Shown are side measurements of this screen, not its main read-out; they come without a call.
assay: compounds boosting herpes simplex virus growth – fold increase, host cell viability (AID 1956); conditions: HSV replication augmentation in cells; fold increase: measured here: primary screen fold increase 10 uM, at 10 µM, stronger effect = higher value; viability: measured here: host cell viability series, at 25 µM, stronger effect = lower value; also: tested in PC3 cells

| SMILES | fold increase | viability [%] |
| --- | --- | --- |
| O=C(Nc1ccon1)C(Sc1ccccc1)c1ccccc1 (stereo unspecified) | 1.32 | 93 |
| CCN1/C(=C/c2ccc3cc(C)cc(C)c3[n+]2CC)Sc2cc(C)ccc21 | 7.87 | 9.29 |
| CCOc1ccc(NC(=O)CSc2nnc(Cn3c(=O)sc4ccccc43)n2C)cc1 | 1.35 | 93.3 |
| Cc1ccc(-c2nc(CSCC(=O)N3CCN(c4ccccn4)CC3)c(C)o2)cc1 | 1.45 | 30.4 |
| N=c1n(Cc2ccccc2)c2ccccc2n1CC(O)c1ccco1 (stereo unspecified) | 1.54 | 91.5 |
| CCSc1nc(C)c(C)c(=O)[nH]1 | 1.32 | – |
| CN1CCN(C=Nc2nc3ccccc3nc2N2CCCC2)CC1 | 1.32 | – |
| COc1ccc(C2C(C#N)=C(N)N(c3sc4c(c3C#N)CCCC4)C3=C2C(=O)CC(C)(C)C3)cc1 (stereo unspecified) | 1.7 | 75.6 |
| CCc1ccc(S(=O)(=O)/N=C2/C=C(Sc3ncn[nH]3)C(=O)c3ccccc32)cc1 | 1.34 | 12.3 |
| Cc1ccc(C)c(NC(=S)NCc2ccc3c(c2)OCO3)c1 | 1.15 | – |
| O=C(N/N=C/c1cc(Cl)cc(Cl)c1O)c1ccncc1 | 1.34 | – |
| CCCn1nc(-c2ccccc2)c2nc3ccccc3nc21 | 1.39 | 94.3 |
| S=c1[nH]nc(-c2ccc3ccccc3n2)n1-c1ccc(Cl)cc1 | 1.48 | 88.1 |
| CN1CCN(C(=O)c2ccc3c(c2)N(Cc2cccc(Cl)c2)C(=O)c2ccccc2S3=O)CC1 (stereo unspecified) | 1.35 | 94 |
| CCOC(=O)CSc1nnc(CNC(=O)Cc2ccccc2)n1C | 1.49 | 93.9 |
| CCC(C)(C)NC(=O)C(c1ccc(C)o1)N(Cc1cccs1)C(=O)Cn1nnc2ccccc21 (stereo unspecified) | 1.15 | – |
| CC[n+]1c(C=C2C=C(C)OC(C)=C2)sc2ccccc21 | 1.79 | 48.2 |
| CCN1/C(=N\N)c2cccc3cccc1c23 | 1.74 | 99 |
| N#Cc1ccc(/C=C(\C(=O)C(=O)O)c2ccc3ccccc3n2)cc1 | 2.68 | 95.4 |
| CCN1C(=O)/C(=C/C=C2/CCCN2C)OC1=S | 1.61 | 95 |
| COc1ccc(N(CC(=O)NCCSC(C)(C)C)S(C)(=O)=O)c(OC)c1 | 1.42 | 94.6 |
| N#C/C(=C\C1=C(N2CCOCC2)C(=C/c2cccc([N+](=O)[O-])c2)/CC1)C(=O)Nc1ccccc1F | 1.64 | 88.8 |
| CCOc1ccc(NC(=S)N(CC)Cc2ccccc2)cc1 | 1.41 | 101 |
| Cc1ccsc1C1NC(=O)c2c(sc3c2CCN(C)C3)N1 (stereo unspecified) | 1.37 | 94.5 |

| SMILES | fold increase | viability [%] |
| --- | --- | --- |
| CN1CCN(C(=S)NCCc2ccccc2)CC1 | 1.41 | 94 |
| COc1ccc(-n2c(O)c(/C=N/NS(=O)(=O)c3ccc(C)cc3)c3ccccc3c2=O)cc1OC | 2.6 | 98.5 |
| CCOc1ccccc1CNS(=O)(=O)c1ccc2c(c1)oc(=O)n2C | 1.41 | 100 |
| Cc1ccc(S(=O)(=O)N2CCN(c3nc(C)nc4sc5c(c34)CCC(C)C5)CC2)cc1 (stereo unspecified) | 1.59 | – |
| COc1ccc(C(=O)c2sc3nc(-c4ccccc4)ccc3c2N)cc1 | 4.28 | 94.5 |
| N/C(=N\OC(=O)CCC1CCCC1)c1cccnc1 | 1.58 | 99.4 |
| CCOC(=O)c1c2c3c(c(Cl)ccc3[nH]c1=O)C(=O)c1ccccc1-2 | 1.54 | 91.1 |
| Cc1cc(Oc2ccc(N)cn2)cc(C)c1Cl | 1.4 | 89.3 |
| C=CCOC(=O)C1=C(C)OC(N)=C(C#N)C1c1ccoc1 (stereo unspecified) | 1.41 | 99.6 |
| O=C(c1ccccc1)[C@@H]1[C@@H]2C(=O)N(c3ccc(F)cc3)C(=O)[C@@H]2C2CCCN21 (stereo partly specified) | 1.34 | 98.7 |
| O=c1oc2ccccc2c(NCc2cccc(F)c2)c1[N+](=O)[O-] | 1.53 | 103 |
| Cc1c(N2C(=O)/C(=C\c3ccc(N(C)C)cc3)N(C)C2=S)c(=O)n(-c2ccccc2)n1C | 3.22 | 88.9 |
| CCC(c1nnnn1CCc1ccccc1)N(Cc1ccco1)Cc1cc2c(C)ccc(C)c2[nH]c1=O (stereo unspecified) | 1.16 | – |
| Cc1ccc2nc(/C(C#N)=C\c3ccc([N+](=O)[O-])o3)[nH]c2c1 | 3.59 | 16.2 |
| O=[N+]([O-])c1ccc(N/N=C/c2sc(N3CCOCC3)nc2-c2ccccc2)c(S(=O)(=O)Nc2ccc(Cl)cc2)c1 | 1.59 | – |
| COc1ccc(Nc2nc3ccc(C)cc3cc2C#N)c(OC)c1 | 2.02 | 101 |
| COc1cc(/C=C2\C(=N)N3N=CSC3=NC2=O)cc(Br)c1OC(=O)c1ccco1 | 4.65 | – |
| Cc1ccc(S(=O)(=O)Oc2ccccc2/C=C2/SC(=O)NC2=O)cc1 | 1.32 | – |
| O=C(Cc1nc2ccccc2[nH]c1=O)c1ccccc1 | 1.47 | 91.3 |
| COc1cccc(C(=O)/C=C/Nc2ccc(S(=O)(=O)Nc3cnc4ccccc4n3)cc2)c1 | 1.32 | – |
| O=C1S/C(=C/c2ccc(N3CCOCC3)o2)C(=O)N1Cc1ccc(F)cc1 | 2.98 | 89.6 |
| Nc1ccccc1Nc1cc(-c2ccccc2)[nH]n1 | 1.8 | 40.2 |
| Cc1cc(C)nc(Nc2ncc(O)n2-c2ccc(Br)cc2)n1 | 1.49 | 101 |
| CCCCn1c(NS(=O)(=O)c2ccc(C)cc2)c(S(=O)(=O)c2ccccc2)c2nc3ccccc3nc21 | 1.34 | 88.9 |

| SMILES | fold increase | viability [%] |
| --- | --- | --- |
| CC1CCN(c2ccccc2NC(=S)NC(=O)c2cccs2)CC1 | 1.32 | – |
| CC1CCN(Cc2c(O)ccc3c2O/C(=C\c2ccco2)C3=O)CC1 | 2.14 | – |
| CCN1CCN(C(c2cccs2)C(C)NC(=O)c2ccccc2F)CC1 (stereo unspecified) | 1.42 | 104 |
| Cc1ccc(NC(=O)CO/N=C/c2ccc(N(C)C)cc2)cc1 | 1.63 | 94.4 |
| COc1ccc(C2c3ccc(O)cc3Oc3ncn(Cc4ccco4)c(=N)c32)cc1OC (stereo unspecified) | 1.32 | – |
| O=C(Cn1nnc2c(cnn2-c2ccccc2)c1=O)NCc1cccs1 | 1.16 | – |
| Cc1cc(/C=C2\SC(=S)N(C)C2=O)c(C)n1-c1ccc(O)cc1 | 1.67 | 39.2 |
| CCOC(=O)CC(=O)CSc1nc(-c2ccc3c(c2)OCO3)cc(C(F)(F)F)c1C#N | 2.12 | 97.8 |
| COC(=O)CNC(=O)/C=C/c1ccc(OC)cc1 | 1.45 | 98.3 |
| CCOC(=O)N1CCN(C(=O)CN(C2CCCCC2)S(=O)(=O)c2ccc(Cl)cc2)CC1 | 1.41 | 100 |
| COc1cc2c3nnc(-c4ccc(F)cc4)c-3cn(Cc3ccccc3)c2cc1OC | 3.03 | 5.39 |
| O=S(=O)(Nc1ccc(Cc2ccncc2)cc1)c1ccc(Cl)c(Cl)c1 | 1.43 | 77.7 |
| CCCCC#Cc1cncc(C(=O)NN)c1 | 3.09 | 96.3 |
| O=C(O)CCCN1C(=O)/C(=C\c2ccc(-c3nc4ccccc4s3)o2)SC1=S | 2.06 | – |
| Cc1cc2cc(CNC(=O)c3ccc(Br)o3)ccc2n1C | 1.33 | – |
| CCOC(=O)CNc1ccc2c(c1)OCO2 | 1.51 | 91.8 |
| Cc1ccc2nc(/C(C#N)=C\c3ccc(N4CCOCC4)o3)[nH]c2c1 | 6.78 | 91.1 |
| Oc1c(Cl)cc(Cl)cc1/C=N/NC(=S)NC1CC2C=CC1C2 (stereo unspecified) | 1.36 | 81.5 |
| CC1CCN(c2nc3ccccc3nc2C(C#N)C(=O)OC2CCCCC2)CC1 (stereo unspecified) | 1.48 | 97.5 |
| CCCCNC(=O)/C(C#N)=c1\s/c(=C\c2ccccc2OC(F)F)c(=O)n1CCCOC | 2.69 | 97 |
| COc1cc(/C=C2\C(=O)ON=C2c2ccccc2)cc(Cl)c1O | 1.94 | 70.6 |
| Cc1ccc(S(=O)(=O)N2CC=C(c3c(C)n(C)c4ccccc34)CC2)cc1 | 1.32 | – |
| C=CCN1C=CC(=C/C=C(/C#N)C(=O)OCC)C=C1 | 2.2 | 94.5 |
| Cc1onc(-c2c(F)cccc2Cl)c1C(=O)c1ccccc1 | 1.37 | 97 |

| SMILES | fold increase | viability [%] |
| --- | --- | --- |
| Cc1cccc(N2CCN(C(=O)CN3CCOc4ccccc43)CC2C)c1 (stereo unspecified) | 1.59 | 96.5 |
| COc1cc(/C=C(\C#N)c2nc3ccccc3s2)ccc1OCC(=O)Nc1ccccc1 | 1.39 | 94.8 |
| CC1CC(C)CN(S(=O)(=O)c2ccc(NC(=O)C3COc4ccccc4O3)cc2)C1 (stereo unspecified) | 1.32 | 89.9 |
| Cc1ccc(S(=O)(=O)c2c(N)n(/N=C/c3ccco3)c3nc4ccccc4nc23)cc1C | 1.21 | 87.4 |
| O=C(CSc1nnc(COc2cccc3ccccc23)o1)N1c2ccccc2CCc2ccccc21 | 1.15 | – |
| CC(=O)c1c(C)nc2sc3c(=N)n(N)cnc3c2c1-c1ccc(Cl)cc1 | 2.09 | 87.7 |
| c1ccc(-c2nc3ccccc3nc2-c2ccccn2)nc1 | 1.37 | 86.4 |
| CN1CCCC1CCNc1ccc2sc3ccccc3c(=O)c2c1 (stereo unspecified) | 1.35 | 22.6 |
| O=C1c2cccc3c(N4CCCCC4)ccc(c23)C(=O)N1c1ccccn1 | 30.3 | 77.2 |
| CCOc1ccc(/C=C2/SC(=O)NC2=S)cc1 | 1.39 | 81.1 |
| C=CCSc1nnc(C)c(/C=C/Nc2ccc(Cl)cc2)n1 | 1.64 | 93.9 |
| O=C(NCCc1ccccc1)c1cc(-c2ccco2)on1 | 1.63 | 91.7 |
| CCOC(=O)c1sc(-c2ccc(C(F)(F)F)cc2)nc1O | 1.49 | 105 |
| O=C(Cn1ccc(=O)[nH]c1=O)Nc1ccc(C(=O)O)c(O)c1 | 1.4 | 93.5 |
| N#C/C(=C\Nc1ccc2cn[nH]c2c1)c1nc(-c2ccc(Cl)cc2)cs1 | 1.55 | 47.8 |
| O=c1c2c([nH]n1-c1ccccc1)CCCC2 | 1.43 | 103 |
| CCN(CC)c1ccc2cc(/C(N)=N/NC(=O)c3cccs3)c(=O)oc2c1 | 1.7 | 92.2 |
| O=C(CC(SCCO)c1ccc2c(c1)OCO2)c1cccs1 (stereo unspecified) | 1.43 | 83.4 |
| Cc1cc2nc3c(=O)[nH]c(=O)[nH]c3nc2c([N+](=O)[O-])c1N | 1.47 | 101 |
| N#C/C(=C\c1ccc(N2CCOCC2)o1)C(=O)Nc1ccc(O)cc1 | 4.08 | 80.7 |
| O=c1cc(CO)oc(C(Nc2ccccn2)c2ccsc2)c1O (stereo unspecified) | 1.68 | 96.8 |
| CN1C(=O)/C(=C/C=C2\SCCN2C)OC1=S | 1.97 | 84.7 |
| CC1CC(C)CN(C(=O)c2ccc3c(c2)N(Cc2ccccc2)CCS3)C1 (stereo unspecified) | 1.33 | 97.4 |
